Our source for the switch fluorescence ratio values is the supplement of paper PMC10126150.

Values marked as one replicate rest on one cluster of the flow cell; about a third of the high ones do not repeat.
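Further: ATP exposure 15 min at 22 °C before imaging.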

The data set relates to ATP. The experiment in a line: switch fluorescence ratio, 500 uM ATP over buffer (Cy3 cluster intensity, sum of 5 cycles each) (fold (ratio)); higher = stronger signal-on switching upon ATP binding; sequences stand for … in TCGTCGGCAGCGTCAGATGTGTATAAGAGACAGTTTTTTTTTTTTTTTTTTTTTTTTT…TC. To be noted: aptamer strand: ATP DNA aptamer (quencher-CACCTGGGGGAGTATTGCGGAGGAAGG + anchor), 100 nM annealed; ATP concentration: 500 uM; one replicate. In outline: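 Cy3-labelled switching-strand clusters on a modified Illumina MiSeq flow-cell were annealed to 100 nM quencher-labelled ATP aptamer, imaged in selection buffer, then imaged after 15 min with 500 uM ATP at 22 °C. Five buffer/ATP cycles ran, with NaOH stripping and re-annealing between them. The fluorescence ratio is summed target-cycle over summed buffer-cycle Cy3 intensity per cluster, averaged per switch-domain sequence. Clusters outside 100-1000 RFU were excluded.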
As for CCCCTGGATC, the switch fluorescence ratio amounted to 1.06.

Turning to GTGGCTAGTA, the switch fluorescence ratio is 1.07.

As to TTCTACGCCG, the switch fluorescence ratio worked out at 0.827.

As for ATCGGCCTCA, the switch fluorescence ratio is 0.947.

Regarding TCCAGTCATA, the switch fluorescence ratio was found to be 0.999.

Consider TACGTCTGCG, for which the switch fluorescence ratio was found to be 0.995.

In the case of CTGGCGATTG, the switch fluorescence ratio is 1.

As to GACTGCACTC, the switch fluorescence ratio amounted to 1.76.

Turning to AGGGTTTCGA, the switch fluorescence ratio is 1.03.

Take GGTTGTTGTC: the switch fluorescence ratio came to 1.03.

Turning to TCACCATAAA, the switch fluorescence ratio worked out at 1.02.

For the sequence AGCTAGTAAG, the switch fluorescence ratio is 0.974.

Regarding GTATAAAAAT, the switch fluorescence ratio turned out to be 0.957.

Take ACATATGTGA: the switch fluorescence ratio is 1.06.

AGTCACAGGC: the switch fluorescence ratio came out at 1.04.

TTACGATATG: the switch fluorescence ratio is 1.21.

In the case of TTCTGTATGA, the switch fluorescence ratio was 0.974.

On to CATGACTTAA, for which the switch fluorescence ratio came to 0.983.

As for GATCGTCACC, the switch fluorescence ratio amounted to 1.05.

Regarding CGCTGGCCC, the switch fluorescence ratio came out at 1.03.

Regarding TATTAATGGT, the switch fluorescence ratio was found to be 0.947.

In the case of GATAGTGATG, the switch fluorescence ratio was 1.02.

AGTGATCTAG: the switch fluorescence ratio was 1.01.

With GGCAGCAAGA, the switch fluorescence ratio came to 2.02.

Take AGCACGACCT: the switch fluorescence ratio was 1.49.

Turning to TTCCCCAAGT, the switch fluorescence ratio was 1.05.

For the sequence ATTGGCCTGT, the switch fluorescence ratio stood at 1.

ATAACGGGTC: the switch fluorescence ratio came to 0.997.

With TTTCTCAACG, the switch fluorescence ratio came to 1.03.

As to TTACCGTCG, the switch fluorescence ratio came to 1.06.

For the sequence TATATATTGG, the switch fluorescence ratio came out at 1.01.

Take GCTTGCCTCA: the switch fluorescence ratio was 1.38.

With ACGATGTCTG, the switch fluorescence ratio stood at 0.977.

On to CTGGACTTAT, for which the switch fluorescence ratio was 0.947.

Consider GAACGCAAAT, for which the switch fluorescence ratio was found to be 3.83.

Consider GTCTAGACCT, for which the switch fluorescence ratio stood at 1.05.

GGCGTAGTAG: the switch fluorescence ratio stood at 0.996.

Regarding ATGTATATCC, the switch fluorescence ratio was 1.03.

As to TAGTAGGT, the switch fluorescence ratio was 1.

Take ATTGCTTGAA: the switch fluorescence ratio was 1.05.

Consider AGAGGCGGAG, for which the switch fluorescence ratio came out at 0.99.

ATTGAAACGT: the switch fluorescence ratio amounted to 1.08.

In the case of ACGAAAGTTA, the switch fluorescence ratio turned out to be 1.02.

Turning to AATTTCAGGG, the switch fluorescence ratio worked out at 1.02.

With TGGTTCAAGG, the switch fluorescence ratio turned out to be 1.

CTGAGAATTC: the switch fluorescence ratio was determined as 0.985.

TCCAATAGAC: the switch fluorescence ratio was found to be 2.27.

Consider AATTTGGGCT, for which the switch fluorescence ratio turned out to be 0.983.

On to AGGTACGTG, for which the switch fluorescence ratio came to 0.981.

Consider TACAGTTT, for which the switch fluorescence ratio amounted to 1.01.

CACAAAGATA: the switch fluorescence ratio was found to be 0.982.

With GGGGAGGTGA, the switch fluorescence ratio is 1.07.

Turning to ACCATATGGT, the switch fluorescence ratio amounted to 1.03.

Turning to TTACCCCTCA, the switch fluorescence ratio turned out to be 1.11.

On to CATTACTTAG, for which the switch fluorescence ratio came to 1.01.

For ATAAGGATC, the switch fluorescence ratio came out at 1.03.

With TGTCTGAC, the switch fluorescence ratio is 1.32.

On to TAAAGGATCA, for which the switch fluorescence ratio is 0.966.

On to ATTAGCGGT, for which the switch fluorescence ratio was found to be 0.987.

As to GTGATTATGA, the switch fluorescence ratio amounted to 0.992.

In the case of CCAAAGGACG, the switch fluorescence ratio was found to be 0.944.

GCTAGCACAT: the switch fluorescence ratio was 1.

As to TATCTTCTAG, the switch fluorescence ratio worked out at 1.03.

With CAAGAGGTGT, the switch fluorescence ratio was determined as 1.06.

Take CAGTGGGGT: the switch fluorescence ratio was determined as 0.98.

As for TACCGGTGAA, the switch fluorescence ratio stood at 1.02.

Turning to GGTTAGCCTT, the switch fluorescence ratio turned out to be 1.03.

Take CAGTCTCAGC: the switch fluorescence ratio was determined as 0.949.

With TGACAGCGTC, the switch fluorescence ratio worked out at 0.967.

Take ATCGCAGGGT: the switch fluorescence ratio was determined as 1.01.

In the case of GCGACTGCAC, the switch fluorescence ratio was found to be 0.993.

In the case of GCACGTGTGG, the switch fluorescence ratio worked out at 1.02.

As to CATAATCTTG, the switch fluorescence ratio came out at 1.01.

On to GCTGGAGACA, for which the switch fluorescence ratio stood at 1.04.

On to GACGACATCT, for which the switch fluorescence ratio is 1.02.

Consider GATTGCACTG, for which the switch fluorescence ratio worked out at 1.04.

With TCGCCATCGG, the switch fluorescence ratio came out at 1.

For CGTCGTTGCT, the switch fluorescence ratio stood at 1.

With GGCCTATCCG, the switch fluorescence ratio was 0.998.

Consider ATCGGCGGAG, for which the switch fluorescence ratio came out at 0.964.

For the sequence GGAGCAGCCG, the switch fluorescence ratio came out at 1.1.

On to GTGGTTAGG, for which the switch fluorescence ratio amounted to 0.996.

Regarding TGTTTCGCGT, the switch fluorescence ratio was 0.979.

For the sequence CACAAGCTCG, the switch fluorescence ratio turned out to be 0.977.

With AGCGATACTA, the switch fluorescence ratio is 4.15.

With TTGAAAGCAA, the switch fluorescence ratio amounted to 1.

As to AGCTGTGGTA, the switch fluorescence ratio was 0.998.

Turning to CTCGGTTGGA, the switch fluorescence ratio is 1.01.

For the sequence TCTGTAACTA, the switch fluorescence ratio amounted to 0.993.

For the sequence ATTGTATAGG, the switch fluorescence ratio was 0.989.

Turning to CGAAGAAGTG, the switch fluorescence ratio came out at 0.971.

Turning to CTGCTTCCCA, the switch fluorescence ratio came to 1.03.

With TTGCAAATCA, the switch fluorescence ratio came to 1.05.

As to TAATGCTTGT, the switch fluorescence ratio worked out at 0.978.

Regarding GCTATGCAGC, the switch fluorescence ratio stood at 1.06.

With AGTCGGGTTA, the switch fluorescence ratio stood at 0.938.

For TTCCCTGTAT, the switch fluorescence ratio is 1.02.

Turning to CGTCAACGGA, the switch fluorescence ratio came out at 1.01.

Consider ATCACATCGC, for which the switch fluorescence ratio was 1.03.

On to GGGTTGC, for which the switch fluorescence ratio turned out to be 1.03.

With CAGGCCGGCA, the switch fluorescence ratio was determined as 0.988.

With ATGTTCTCGG, the switch fluorescence ratio was found to be 0.986.

As for TTGCACTCTG, the switch fluorescence ratio was 0.98.

As to GAAGGGGTT, the switch fluorescence ratio worked out at 1.02.

Consider AGCTCGTCCT, for which the switch fluorescence ratio was 0.975.

In the case of GACCCGAGGC, the switch fluorescence ratio was determined as 1.06.

With ACTTCTGAGC, the switch fluorescence ratio turned out to be 1.24.

Take AATCGAAGGG: the switch fluorescence ratio was 1.01.

For the sequence CGTTTCTTCG, the switch fluorescence ratio turned out to be 0.975.

Regarding GCAGAGTGGG, the switch fluorescence ratio stood at 1.02.

Turning to TAAGCTGGAC, the switch fluorescence ratio was determined as 1.01.

With TCAGCTTACC, the switch fluorescence ratio came to 1.12.

Consider CTGAGTATAA, for which the switch fluorescence ratio turned out to be 1.05.

As for AGACTTGTGG, the switch fluorescence ratio was 0.954.

In the case of ACTGTGATTA, the switch fluorescence ratio came to 1.01.

In the case of CCTTGGGCTC, the switch fluorescence ratio is 1.56.

Turning to GCCAGTCGGA, the switch fluorescence ratio was 0.984.

In the case of GGAAAAAGA, the switch fluorescence ratio is 0.979.

With TTGACGTTGG, the switch fluorescence ratio came to 0.994.

Regarding CACTCTACC, the switch fluorescence ratio was determined as 1.32.
